Results as given in the supplement of paper PMC9334596.
Values joined by “and” are separate entries in the source; they are usually repeats but may differ in a detail not shown here. Equal values may be shown once. Over roughly 5,300 compounds, “PER2::LUC luminescence relative to vehicle control” has its median near 0.96; the highest 2% begin near 1.3. The list shows a part of the results.

Test system: mPer2Luc MEF
Assay: PER2::LUC luminescence relative to vehicle control (fold of vehicle); higher = higher PER2::LUC reporter signal
Details: 10 µM
Procedure, shortened: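 Compounds from commercial libraries were added at 10 μM to 384-well plates seeded 48 h earlier with ~3000 mPer2Luc mouse embryonic fibroblasts per well. The cells were kept in DMEM with 10% FBS at 37 °C and 5% CO2. Luminescence was read with ONE-Glo 24 h and 30 h after treatment, then an alamarBlue viability assay was run. Values are PER2::LUC luminescence relative to vehicle control, as fold change.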

Compound | PER2::LUC luminescence (time after treatment 24 h) | PER2::LUC luminescence (time after treatment 30 h)
CC(C)CC[C@@H](O)[C@](C)(O)[C@H]1CC[C@@]2(O)C3=CC(=O)[C@]4(O)C[C@@H](O)[C@@H](O)C[C@]4(C)[C@H]3[C@H](O)C[C@]12C | 1.22 | 1.26
O=C(CCCl)NCCc1ccccc1 | 1.07 and 1.1 | 1.03 and 0.991
Cn1nnnc1SCC1=C(C(=O)O)N2C(=O)[C@@H](NC(=O)C(OC=O)c3ccccc3)[C@H]2SC1 (some centres not stated) | 0.605 | 0.705
OC[C@@H](O)[C@@H](O[C@@H]1O[C@H](CO)[C@@H](O)[C@H](O)[C@H]1O)[C@H](O)[C@@H](O)CO | 0.932 | 0.857
CCOC(=O)C1=C(N)Oc2ccc(Br)cc2C1C(C#N)C(=O)OCC (configuration not stated) | 0.958 | 0.94
COc1cc(O)c2c(=O)cc(C)oc2c1CC=C(C)C | 0.883 | 0.963
O[C@@](Cc1ncc(CC2(C(F)(F)F)CC2)[nH]1)(c1ccc(-n2cccn2)cc1)C(F)(F)F | 0.966 | 0.921
CC(C)[C@@H]1C(=O)N(S(C)(=O)=O)[C@@H]2CCN(C(=O)/C=C/CN3CCCCC3)[C@H]21 | 1.04 | 0.988
Cc1ccc(S(=O)(=O)Nc2nc3ccccc3nc2Nc2ccc3nsnc3c2)cc1 | 1.06 | 1.04
O=[N+]([O-])c1ccc(Nc2nc(N3CCOCC3)nc(N3CCOCC3)n2)cc1 | 0.79 | 0.79
CCCCOc1cc(C(=O)OCCN(CC)CC)ccc1N | 0.825 and 0.797 | 0.997 and 0.806
NC(N)=N[C@@H](CCC(=O)O)C(=O)O | 1.09 | 0.976
N#C/C(=C1/SC[C@@H](c2ccc(Cl)cc2Cl)S1)n1ccnc1 | 1.34 | 1.11
C[N+](C)(C)CC(O)CC(=O)[O-] (configuration not stated) | 0.975 and 0.949 | 0.995 and 0.892
Nc1nc(=O)n([C@@H]2CS[C@H](CO)O2)cc1F | 1.13 | 1.23
COc1ccc(Cl)cc1C(=O)NCCc1ccc(S(=O)(=O)NC(=O)NC2CCCCC2)cc1 | 1.05 and 0.953 | 1.01 and 0.842
CC[C@@H]1C(=O)N(C)c2cnc(Nc3ccc(C(=O)N[C@H]4CC[C@H](N5CCN(CC6CC6)CC5)CC4)cc3OC)nc2N1C(C)C | 0.051 | 0.064
CCc1cccc(CC)c1NC(=O)N1Cc2[nH]nc(NC(=O)c3ccc(N4CCN(C)CC4)cc3)c2C1 | 0.711 | 0.658
CC#C[C@]1(O)CC[C@H]2[C@@H]3CCC4=CC(=O)CCC4=C3[C@@H](c3ccc(N(C)C)cc3)C[C@@]21C | 0.718 | 0.823
COc1cc(SC)ccc1C(=O)N1CCC(Cc2ccccc2)CC1 | 0.982 | 0.976
Cc1ncc(-c2csc(N=C(N)N)n2)[nH]1 | 1.07 | 1.03

Compound | PER2::LUC luminescence (time after treatment 24 h) | PER2::LUC luminescence (time after treatment 30 h)
COC(=O)C1=CO[C@@H](O)[C@@H]2C(CO)=CC[C@H]12 | 0.961 | 0.959
Cc1nc(C(=O)NCC(=O)O)c(O)c2ccc(Oc3ccccc3)cc12 | 1.06 and 0.974 | 1.07 and 0.971
CCCCCCNC(=O)n1cc(F)c(=O)[nH]c1=O | 1.19 | 1.06
CCC[C@@H]1C[C@@H](C(=O)N[C@@H]([C@H]2O[C@H](SC)[C@H](OP(=O)(O)O)[C@@H](O)[C@H]2O)[C@H](C)Cl)N(C)C1 | 1.07 | 1.01
CCCOc1ccccc1-c1nc2[nH]nnc2c(=O)[nH]1 | 1.08 | 1.04
Cn1cc(C(F)(F)F)nc1-c1ccc(OCC(O)CNCCOc2ccc(O)c(C(N)=O)c2)cc1 (configuration not stated) | 0.984 | 1.01
CN1CCN2c3ncccc3Cc3ccccc3C2C1 (configuration not stated) | 1.03 and 0.928 | 0.815 and 0.834
CC[C@H](NC(=O)[C@H](C)NC)C(=O)N1C[C@@H](O)C[C@H]1Cc1c(-c2[nH]c3cc(F)ccc3c2C[C@@H]2C[C@H](O)CN2C(=O)[C@H](CC)NC(=O)[C@H](C)NC)[nH]c2cc(F)ccc12 | 0.958 | 0.884
NCCC(=O)N[C@@H](Cc1c[nH]cn1)C(=O)O | 0.96 | 0.972
CC(C)N(CC[C@H](c1ccccc1)c1cc(CO)ccc1O)C(C)C | 1.03 and 0.99 and 0.999 | 1.06 and 1.02 and 0.965
CC(C)[C@H](N)C(=O)OCCOCn1cnc2c(=O)nc(N)[nH]c21 | 0.906 and 0.989 | 1.02 and 0.842
Cc1cc(C)nc(NS(=O)(=O)c2ccc(N)cc2)n1 | 0.964 and 1.02 | 1.01 and 0.926
CC1(C)O[C@@H]2C[C@H]3[C@@H]4C[C@H](F)C5=CC(=O)C=C[C@]5(C)[C@@]4(F)[C@@H](O)C[C@]3(C)[C@]2(C(=O)CO)O1 | 0.902 | 1.15
COc1cc(NS(=O)(=O)c2ccc(N)cc2)ncn1 | 0.924 | 1.09
CCCCCCCC/C=C\CCCCCCCC(=O)O.NCCO | 1.03 | 0.911
COC(=O)N/N=C/c1c[n+]([O-])c2ccccc2[n+]1[O-] | 0.789 | 1.08
CC(C)(Oc1ccc(Cl)cc1)C(=O)OCCOC(=O)c1cccnc1 | 1.03 | 0.989
CN(C(=O)CN(CCO)CC(=O)N(C)C(C)(C)Cc1ccccc1)C(C)(C)Cc1ccccc1 | 0.645 | 0.711
O=C(O)C1=CC(=C(c2ccc(O)c(C(=O)O)c2)c2ccc(O)c(C(=O)O)c2)C=CC1=O | 0.776 | 0.638
CC1=NN(c2ccc(C)c(C)c2)C(=O)/C1=N\Nc1cccc(-c2cccc(C(=O)O)c2)c1O | 1.11 | 1.12
